Data taken from article PMC3253811.
No constants are given. Whether binding was seen depends on the method and setting. Binding seen in cells or lysates may run through a third protein. Some entries that bind do so weakly or less than the wild type. Sequences can lack the tags named with a protein.

Chains of the proteins cited; added tags and fusions are not shown. Lines headed by an entry give the natural chain unless they say otherwise; changes in a name come on top. Residues count along the entry.
UniProt Q96EP0: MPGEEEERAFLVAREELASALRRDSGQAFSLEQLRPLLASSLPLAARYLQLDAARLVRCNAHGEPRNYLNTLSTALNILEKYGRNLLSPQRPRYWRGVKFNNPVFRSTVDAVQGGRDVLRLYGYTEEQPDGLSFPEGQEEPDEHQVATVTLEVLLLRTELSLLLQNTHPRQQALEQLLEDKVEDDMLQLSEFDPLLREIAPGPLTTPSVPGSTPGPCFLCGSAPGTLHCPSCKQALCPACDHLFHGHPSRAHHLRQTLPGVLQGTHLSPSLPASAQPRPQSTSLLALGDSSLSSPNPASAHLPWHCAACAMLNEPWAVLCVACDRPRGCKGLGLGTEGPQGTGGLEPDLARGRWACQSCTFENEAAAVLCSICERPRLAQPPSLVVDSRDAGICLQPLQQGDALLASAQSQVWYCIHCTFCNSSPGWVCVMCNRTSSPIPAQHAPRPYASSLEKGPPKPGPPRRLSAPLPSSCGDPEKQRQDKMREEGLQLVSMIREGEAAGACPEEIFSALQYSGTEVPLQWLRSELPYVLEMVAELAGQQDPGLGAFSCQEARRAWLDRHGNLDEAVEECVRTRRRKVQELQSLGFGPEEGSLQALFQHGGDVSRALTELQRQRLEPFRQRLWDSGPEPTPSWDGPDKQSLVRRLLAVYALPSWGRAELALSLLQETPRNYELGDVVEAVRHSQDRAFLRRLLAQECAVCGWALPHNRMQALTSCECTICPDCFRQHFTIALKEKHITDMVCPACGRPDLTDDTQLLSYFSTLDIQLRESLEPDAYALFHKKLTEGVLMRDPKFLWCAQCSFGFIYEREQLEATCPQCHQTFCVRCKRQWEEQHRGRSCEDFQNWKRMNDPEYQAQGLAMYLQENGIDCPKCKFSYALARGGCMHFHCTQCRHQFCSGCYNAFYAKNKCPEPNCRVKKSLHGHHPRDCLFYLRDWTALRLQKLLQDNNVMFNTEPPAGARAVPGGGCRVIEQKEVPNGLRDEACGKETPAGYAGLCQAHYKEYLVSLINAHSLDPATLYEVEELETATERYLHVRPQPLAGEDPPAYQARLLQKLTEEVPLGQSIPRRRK
GFP fusion protein of the UBA domain of Hoip (residues 537-686): residues 537-686 of Q96EP0

B1: Myc-tagged Sharpin (protein, UniProt Q9EQL9 1-381)
chain: MSPPAGGAAAAADPASPVVLLAVQAAVRLLGAGHEDEAQLRKLQLKADPERPGRFRLGLLGIEPGAVSLEWPLESICYTIRGPNQHELQPPPGGPGTFSVHFLNSEEAQQWAALVRDATAEGQNGNDSTAPVPTPAMCPTSPPCSSVTPTPKATQPEMDLPQGSGNLKKEELATHLAQAIAGGDEKAAAQVAAILAQHHVALNVQLLEAWFPRGPIRLQVTVEDATSVLSSSSSAHVSLQIHPHCSIAALQEQVFSEFGFPPAVQRWVIGRCLCMPERSLASYGVSQDGDPAFLYLLSAPREVSGHSPQHSKMDRKLGCLFPQSLELPHNLQASSSSLPSPPQPGWSCPSCTFINASNRPGCEMCSTQRPCAWDPLTATST

Experiments:
[1] = biological target: T1, GFP as a fusion with full length Sharpin (amino acids 1-382), in Huh-7 cells (rat) (UniProt Q9EQL9); test: co-IP; GFP-Sharpin expressed in Huh-7 cells, lysate, GFP-Trap matrix, Western blot with antibodies against human Hoip (endogenous)
T1 sequence: B1 chain

[2] = biological target: T2, GFP-Sharpin (full length, amino acids 1-382) (rat) (UniProt Q9EQL9); test: co-IP; coexpression in HEK293 cells, RIPA lysate, GFP fusion precipitated with GFP-Trap matrix, Western blot (anti-GFP, anti-Flag)
T2 sequence: B1 chain

[3] = biological target: T3, GFP fusion of the isolated Ubl domain of Sharpin (residues 171-310) (rat) (UniProt Q9EQL9); test: as above
T3 sequence: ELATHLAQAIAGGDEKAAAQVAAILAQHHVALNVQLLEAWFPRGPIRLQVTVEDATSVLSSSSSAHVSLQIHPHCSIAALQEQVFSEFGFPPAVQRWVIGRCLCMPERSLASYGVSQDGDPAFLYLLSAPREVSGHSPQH

[4] = biological target: GFP fusion protein of the UBA domain of Hoip (residues 537-686) (UniProt Q96EP0); test: as above

Molecule	binding [2]	further results
endogenous Hoip of Huh-7 hepatocarcinoma cells (from UniProt Q96EP0 1-1072) (enzyme)	–	binding [1]: binds
Flag-tagged Hoip fragment, residues 1-686 (from UniProt Q96EP0 1-686) (domain or fragment)	binds	–
Flag-tagged Hoip (from UniProt Q96EP0 1-1072) (enzyme)	binds	binding [3]: binds
Flag-tagged Hoip fragment, residues 1-602 (from UniProt Q96EP0 1-602) (domain or fragment)	binds weakly	–
Flag-tagged Hoip fragment, residues 1-396 (from UniProt Q96EP0 1-396) (domain or fragment)	no binding	–
B1	–	binding [4]: binds
